Measured values as given in the supplement of paper PMC11417369.
The other results are listed elsewhere or left out.

Each sequence was assayed on PfHDP1 homeodomain (GST-tagged) (assay: gcPBM binding intensity (ln(normalized median fluorescence intensity)); higher = stronger DNA binding).
Method in brief: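 Binding of GST-tagged P. falciparum DNA-binding domains, expressed in E. coli and used at about 25 μg on average, was carried out for 1 h in 1× PBS containing 1% milk, 0.2 mg/ml BSA, 0.5% salmon testes DNA and 0.03% Triton X-100. The target was an Agilent 4 × 180k array of primer-extended double-stranded 36-bp intergenic genomic probes plus negative controls, read with Alexa488 anti-GST antibody at 488 nm. Binding intensity is the highest Masliner-normalised natural-log median intensity across replicate spots of either probe orientation.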

Question: How did the “gcPBM binding intensity (ln)” value turn out when “ATTTGTTTACCTAAAAGTACAAATTTTTTATGTATA [XGTACX_site7689]” was run?
Answer: The value was 6.09.

Question: With “ATTTTTTTTATTTTTTATATAATTTTTTTATATTAT [CACACA_negctrl_site1521]” as the sequence, how does the “gcPBM binding intensity (ln)” value read?
Answer: Its value is 6.45.

Question: With “TGTATTTATAAACATGCACACGTGGTTGTATTTATA [CACACA_site5762]” as the sequence, how does the “gcPBM binding intensity (ln)” value read?
Answer: Its value is 8.57.

Question: How did the “gcPBM binding intensity (ln)” value turn out when “TATAATATTATACATAGTACACATCACACATCGCAA [XGTACX_site4650]” was run?
Answer: Its value is 6.82.

Question: Which “gcPBM binding intensity (ln)” value does the source give for “ATATTATTTATAGGGTGTACCTTATTATTATAAGAA [XGTACX_site7148]” here?
Answer: Its value is 6.36.

Question: “TAGAAAAACATTACGTGTACCAAACATCCTAGCAAC [XGTACX_site4888]” was tested. Which “gcPBM binding intensity (ln)” value did it give?
Answer: The value was 6.82.

Question: How did the “gcPBM binding intensity (ln)” value turn out when “TATATACTTTTATGTACACACCTATAATATGGGTGA [CACACA_site5044]” was run?
Answer: Its value is 6.54.

Question: With “AATTTACAAATATAATGTACATAATTATATATATAT [XGTACX_site278]” as the sequence, how does the “gcPBM binding intensity (ln)” value read?
Answer: Its value is 8.55.

Question: Which “gcPBM binding intensity (ln)” value does the source give for “ATATATATATATTACACACACACAAAAAAAATAAAG [CACACA_site118]” here?
Answer: The value was 8.63.

Question: With “TTTGGTTATATTTAAAAAAGACTAATGAAAATTAAA [XGTACX_negctrl_site526]” as the sequence, how does the “gcPBM binding intensity (ln)” value read?
Answer: The value was 6.13.

Question: How did the “gcPBM binding intensity (ln)” value turn out when “AAAAAAAAAAAAAATACACACATAAAATAAATAACA [CACACA_site439]” was run?
Answer: The value was 6.49.

Question: For “AATAGTAAAAATCACTGTACGTTTATTTTTAAAATG [XGTACX_site1035]”, which “gcPBM binding intensity (ln)” value is on record?
Answer: The value was 6.15.

Question: “CCATATACAACCATACGTACATATATATATATATAT [XGTACX_site8193]” was tested. Which “gcPBM binding intensity (ln)” value did it give?
Answer: The value was 9.33.

Question: How did the “gcPBM binding intensity (ln)” value turn out when “CATACCATACATAAAACACACAAAATTTACAGAATA [CACACA_site7451]” was run?
Answer: Its value is 6.81.

Question: How did the “gcPBM binding intensity (ln)” value turn out when “ACATATATATATATATATATATATATATTACATTTA [CACACA_negctrl_site627]” was run?
Answer: Its value is 7.51.

Question: How did the “gcPBM binding intensity (ln)” value turn out when “GAATTTTTTTAATGTTGTACTTTTTTTTTTTTTTCT [XGTACX_site648]” was run?
Answer: Its value is 6.04.

Question: With “ACATATTTTATTTTTTGTACACATATATTATTTTTT [XGTACX_site6528]” as the sequence, how does the “gcPBM binding intensity (ln)” value read?
Answer: The value was 7.22.

Question: How did the “gcPBM binding intensity (ln)” value turn out when “TTTTTGTTAAACAGGGTGCTAATCTGAATTAATATT [GTGCAC_site9908]” was run?
Answer: Its value is 6.24.

Question: With “TTATACATAAATTTTGTACACACAAAAAAAAAAAAG [CACACA_site8374]” as the sequence, how does the “gcPBM binding intensity (ln)” value read?
Answer: The value was 6.42.

Question: For “TTTCAAAAGTAATACTGTACTTATTTTTATGATTTA [XGTACX_site4184]”, which “gcPBM binding intensity (ln)” value is on record?
Answer: The value was 6.04.

Question: With “AATATATTTATAAGCACACACTAATAAACACAGACA [CACACA_site4377]” as the sequence, how does the “gcPBM binding intensity (ln)” value read?
Answer: Its value is 6.91.

Question: For “GTACATAATTATTATGCACACATATTTTTATGTATT [CACACA_site8132]”, which “gcPBM binding intensity (ln)” value is on record?
Answer: The value was 10.5.

Question: For “AAATATATATATATATATATATATGTGTGTGTATAT [GTGCAC_negctrl_site1]”, which “gcPBM binding intensity (ln)” value is on record?
Answer: The value was 7.53.

Question: With “CTTTATAATATTTGTTGTACACAAATATAACATATT [XGTACX_site709]” as the sequence, how does the “gcPBM binding intensity (ln)” value read?
Answer: Its value is 7.11.

Question: “AATAATACAAAAGTTCAACAAAAAAAAAAAAAAAAT [CACACA_negctrl_site952]” was tested. Which “gcPBM binding intensity (ln)” value did it give?
Answer: Its value is 6.18.

Question: How did the “gcPBM binding intensity (ln)” value turn out when “GACATATAAATATACACACATACGTAAGTATATTAA [CACACA_site1790]” was run?
Answer: Its value is 6.47.

Question: With “TTTTTATGGATATTTATATTATATTATGATTAAAAA [TGCATGCA_negctrl_site204]” as the sequence, how does the “gcPBM binding intensity (ln)” value read?
Answer: Its value is 5.94.

Question: Which “gcPBM binding intensity (ln)” value does the source give for “TGTATAATATATATATGTACTTATGTATAATATTAT [XGTACX_site4328]” here?
Answer: The value was 6.25.

Question: Which “gcPBM binding intensity (ln)” value does the source give for “TGCATAAAAGTAAAAACATGCATGCCGTGGTATCTT [TGCATGCA_site664]” here?
Answer: Its value is 6.03.

Question: How did the “gcPBM binding intensity (ln)” value turn out when “AAGATATCTAAGGAAATTAAACTACCAAAATATATA [TGCATGCA_negctrl_site338]” was run?
Answer: The value was 6.19.

Question: Which “gcPBM binding intensity (ln)” value does the source give for “AAATGAAAGAATTAAAGTACATTTATATAATTTTAA [XGTACX_site3540]” here?
Answer: Its value is 5.96.

Question: For “AAGAGAAAAACATACACACACAACAAAATATGTATA [CACACA_site2719]”, which “gcPBM binding intensity (ln)” value is on record?
Answer: The value was 6.5.

Question: With “ATTTAAATATATTATTGTACATATACCTAATAAGAA [XGTACX_site6655]” as the sequence, how does the “gcPBM binding intensity (ln)” value read?
Answer: Its value is 6.57.

Question: How did the “gcPBM binding intensity (ln)” value turn out when “ACTCCTATATAAATGAACCATATTCATAATATATAT [CACACA_negctrl_site1636]” was run?
Answer: The value was 6.31.

Question: For “TAATAATAATTATATACACACATGTATATTATATTT [CACACA_site1501]”, which “gcPBM binding intensity (ln)” value is on record?
Answer: The value was 6.45.

Question: “AAAAAAAAAAATATAACACACAAAAAATTGTATCGA [CACACA_site1144]” was tested. Which “gcPBM binding intensity (ln)” value did it give?
Answer: The value was 6.15.

Question: How did the “gcPBM binding intensity (ln)” value turn out when “ACAAAATTTACAAAATGTACATATTGTAGATATTGT [XGTACX_site7618]” was run?
Answer: The value was 6.26.

Question: With “ATATAGTAAAATTATACACACATGAATTTTCCCATA [CACACA_site3113]” as the sequence, how does the “gcPBM binding intensity (ln)” value read?
Answer: The value was 6.54.

Question: Which “gcPBM binding intensity (ln)” value does the source give for “CCATTAAATACATACACACCCACACCCAAAAAAAAA [CACACA_site4633]” here?
Answer: Its value is 7.16.

Question: For “TAATTTATTATATTTTGTACGTAAAATTATTATTGT [XGTACX_site8155]”, which “gcPBM binding intensity (ln)” value is on record?
Answer: The value was 6.12.

Question: With “TAGGAAAAGAAAAGCACACACATAAATAAATATATA [CACACA_site504]” as the sequence, how does the “gcPBM binding intensity (ln)” value read?
Answer: Its value is 6.47.

Question: “AATATATATTTATATTGTACATATATATATATTTCT [XGTACX_site2603]” was tested. Which “gcPBM binding intensity (ln)” value did it give?
Answer: Its value is 6.4.

Question: How did the “gcPBM binding intensity (ln)” value turn out when “AATATTTATTTTACATGTACTTATTTTTCTTTTAAC [XGTACX_site3631]” was run?
Answer: The value was 6.72.

Question: How did the “gcPBM binding intensity (ln)” value turn out when “TAAAAATATATACATACATGCATACATATATATGTA [TGCATGCA_site774]” was run?
Answer: Its value is 6.47.

Question: How did the “gcPBM binding intensity (ln)” value turn out when “CAAGCCCTTCTGCTTACACACAGTAATTATTGTGTA [CACACA_site2953]” was run?
Answer: Its value is 6.3.

Question: How did the “gcPBM binding intensity (ln)” value turn out when “TTTTTAACATATCATACACACAACAACTTTTTATAG [CACACA_site1962]” was run?
Answer: Its value is 6.74.

Question: Which “gcPBM binding intensity (ln)” value does the source give for “ATTATATATACACGCACACACACTTATATATATATA [CACACA_site9093]” here?
Answer: Its value is 8.99.

Question: “CATTCATTTATTAATTGTACTTTTAAGGTTAAATAA [XGTACX_site5838]” was tested. Which “gcPBM binding intensity (ln)” value did it give?
Answer: Its value is 5.99.

Question: Which “gcPBM binding intensity (ln)” value does the source give for “ATTAAATGCAGTTCGGTGCATTAAGGTTATGATGAA [GTGCAC_site9883]” here?
Answer: The value was 10.7.

Question: How did the “gcPBM binding intensity (ln)” value turn out when “TAAACATTTTTGCACGCACACAAAAAAAAAATAAAA [CACACA_site167]” was run?
Answer: The value was 10.4.

Question: Which “gcPBM binding intensity (ln)” value does the source give for “ATTTTTTAACATATCATACACACAACCACTTTTTAT [CACACA_site1961]” here?
Answer: The value was 6.91.

Question: “CACATACAGACATACACACACATATAGATTAATATA [CACACA_site6399]” was tested. Which “gcPBM binding intensity (ln)” value did it give?
Answer: The value was 7.02.

Question: With “TATATATATATATTATGTACATATATATTAAATATG [XGTACX_site2494]” as the sequence, how does the “gcPBM binding intensity (ln)” value read?
Answer: The value was 8.71.

Question: For “AATAAGAAATGTAAATGTACATAAAAAAAAGTATAT [XGTACX_site3573]”, which “gcPBM binding intensity (ln)” value is on record?
Answer: Its value is 7.11.

Question: Which “gcPBM binding intensity (ln)” value does the source give for “TTAGGGTTTTATAAATGTACTTATTTATACATCCTC [XGTACX_site5769]” here?
Answer: The value was 6.2.

Question: With “TTTATATACTATTCAAAGTGATAAATAATATATGAA [TGCATGCA_negctrl_site352]” as the sequence, how does the “gcPBM binding intensity (ln)” value read?
Answer: The value was 6.12.
